# Assay results: ChEMBL document CHEMBL1201862, “PubChem BioAssay data set” (2004)
#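 Step 1: Grow cells in 96-well plates. Step 2: Expose to compound for 48 hours at 5 concentrations. Step 3: Interpolate endpoints linearly; if unreached, use highest concentration. Abbreviation: GI50, concentration required for 50% inhibition of growth.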 Active and inactive are the calls of the source. Rule as the data show it: active = GI50 up to about 1.1 µM and inactive = higher.
# Test system: NCI-H322M
# Assay: NCI tumour cell line growth inhibition, 48 h
row,SMILES,GI50
1,C/C=C/[P+](c1ccccc1)(c1ccccc1)c1ccccc1,inactive: 4.99 µM
2,CCCCCCCCCCCCCCCC(=O)OCC1OC(N2C(=O)/C(=N\NC(N)=S)c3ccc([N+](=O)[O-])cc32)C(OC(C)=O)C1OC(C)=O (stereo not given),inactive: 91.4 µM
3,C[C@]12CC[C@H](O)C[C@@H]1CC[C@@H]1[C@@H]2CC[C@]2(C)[C@@H](c3cc(C(F)(F)F)[nH]n3)CC[C@@H]12,inactive: 8.69 µM
4,O=C1CCC2(c3ccc(Cl)cc3)Nc3ncccc3N12 (stereo not given),inactive: > 100 µM
5,Cc1ccn2c(CCc3nnc4cc(C)ccn34)nnc2c1,inactive: > 100 µM
6,Clc1ccc(CCn2cncn2)c(Cl)c1,inactive: > 100 µM
7,NC1=NC(=O)[C@H](Cc2c[nH]c3ccccc23)N1C(=O)OCc1ccccc1,inactive: > 100 µM
8,CC1OC(O)CC(N(C)C)C1O.CC1OC(O)CCC1O.CCC1CC(O)c2c(O)c3c(c(O)c2C1O)C(=O)c1cccc(O)c1C3=O (stereo not given),active: 0.0266 µM
9,Cc1nc2c(s/c(=N\N)n2-c2ccccc2)c(=O)[nH]1,inactive: > 100 µM
10,COc1ccc(CNc2nc(NC3CCCCC3)nc(NC3CCCCC3)n2)cc1,inactive: 8.79 µM
11,O=C(O)c1ccc(Nc2ccnc3cc(Cl)ccc23)cc1O,inactive: > 100 µM
12,CC(=O)N/N=C1/CC[C@@]2(C)C(=CC[C@H]3C4CCC(C(C)CCCC(C)C)[C@@]4(C)CCC32)C1(C)C (stereo not given in full),inactive: > 100 µM
13,Cc1ccc2nc3c(C)c(Cl)c(=O)cc-3sc2c1,inactive: 36.4 µM
14,CCCCCCCCCCCCCP(=O)(O)OCC,inactive: > 100 µM
15,c1cc(C2O[C@H]3CCCN3[C@@H]2c2ccncc2)ccn1 (stereo not given in full),inactive: > 100 µM
16,c1cc2c(cc1[C@@H]1OC[C@@H]3[C@H]1CO[C@H]3c1ccc3c(c1)OCO3)OCO2,inactive: 75.9 µM
17,Cc1nc2cc(F)c(F)cc2[nH]c1=O,inactive: > 100 µM
18,COc1cccc(-c2cc(O)c3cc(N4CCCC4)ccc3n2)c1,active: 0.00212 µM
19,C[C@]12CCC(=O)C=C1CC[C@@H]1C2CC[C@]2(C)Nc3[nH]ncc3CC12 (stereo not given in full),inactive: > 100 µM
20,CCOC(=O)/C=C\c1c(Cl)n(-c2ccccc2)c(=O)n(-c2ccccc2)c1=O,inactive: 20.1 µM
21,CN(O)C(=O)SCC(NC(=O)CCC(N)C(=O)O)C(=O)NCC(=O)O (stereo not given),inactive: 418 µM
22,C/C(=N\NC(=S)Nc1ccccc1)c1nc2cccnc2[nH]1,inactive: 5.02 µM
23,COc1ccc(-c2oc3cc(OC)ccc3c(=O)c2O)cc1,inactive: 4.43 µM

row,SMILES,GI50
1,CC(=O)Oc1c(-c2ccccc2)oc2ccccc12,inactive: 3.76 µM
2,N#Cc1c(-c2ccc(Cl)cc2Cl)nc2[nH]nc(S)n2c1=O,inactive: > 100 µM
3,N#CCCN(CCC#N)c1ccc(C(=N/c2ccc(F)cc2)/N=N/c2ccc(Cl)cc2)cc1,inactive: > 100 µM
4,Cc1ccc(-c2c(C#N)c(-c3ccc(N(C)C)cc3)c(C#N)c(=O)n2NS(=O)(=O)c2ccccc2)cc1,inactive: 91.8 µM
5,CC(C)(C)NC1C2CCC(C)(C1O)C2(C)C (stereo not given),inactive: > 100 µM
6,C[n+]1c2ccccc2c(C(=O)Nc2ccc(S(=O)(=O)Nc3ncccn3)cc2)c2ccccc21,inactive: > 100 µM
7,Cc1ccc2[nH]c3c(c(=O)n(C)c(=O)n3C)c2c1,inactive: > 100 µM
8,CC(=O)c1c(O)ccc2c1CC(CC=O)O2 (stereo not given),inactive: > 100 µM
9,O=C1Nc2ccccc2/C1=N/NC(=S)N1CCCCCC1,inactive: 2.82 µM
10,COC(=O)c1nc(NC#N)nc(O)c1C,inactive: > 100 µM
11,CCCCCCCCCCCCCCNC(=O)CCC(NC(=O)c1ccc(N(C)Cc2cnc3nc(N)nc(N)c3n2)cc1)C(=O)NCCCCCCCCCCCCCC (stereo not given),inactive: 7.1 µM
12,C=C1C(=O)C[C@@]23CCC[C@@]12CC(O)C3 (stereo not given in full),inactive: 29.6 µM
13,CO[C@H]1C=CO[C@@]2(C)Oc3c(C)c(O)c4c(O)c(c(CN5CCN(C)CC5)c(O)c4c3C2=O)NC(=O)/C(C)=C\C=C[C@H](C)[C@H](O)C(C)[C@@H](O)C(C)[C@H](OC(C)=O)[C@@H]1C (stereo not given in full),inactive: > 83.2 µM
14,COCCc1c(C)c(C#N)c2n(C)c3ccccc3n2c1=O,inactive: > 10 µM
15,O=c1cc(NNc2ccc3ccccc3c2)[nH]c(=S)[nH]1,inactive: > 100 µM
16,C=CCOCCCC(=O)C(=[N+]=[N-])C(=O)OC,inactive: > 100 µM
17,CC(=O)c1ccc(-c2oc(-c3ccccc3)cc2-c2ccc3c(c2)OCO3)s1,inactive: > 100 µM
18,CCOC(=O)COc1cc(-c2ccccc2F)nc2cc3c(cc12)OCO3,inactive: > 100 µM
19,C=C1C(C(=O)O)C1C(=O)O (stereo not given),inactive: > 100 µM
20,CCCCCCCCCCCCCCC1OC(=O)c2ccccc21 (stereo not given),inactive: > 100 µM
21,O=C1NC(=O)C(C(=O)C(=O)Nc2cccc(C(F)(F)F)c2)C(=O)N1,inactive: > 100 µM
22,COC(OC)c1cc2c(cc1C=O)OCO2,inactive: > 100 µM
